Source: PubChem BioAssay AID1508623 (National Center for Advancing Translational Sciences (NCATS), 2021)
The campaign covered roughly 48,000 compounds. About 450 (0.94%) were called active. Inconclusive results (about 19%) are left out. The call rests on the fitted dose curve; in most records, active means well fitted inhibition curve with a large enough effect; inconclusive means small, poorly fitted or top-dose-only effect; inactive means no such curve, though single readings can be large or run the other way. The list shows a part of the results.

Experiment: Primary qHTS for Identification of Small Molecule Inhibitors of Huntingtin Promoter Activity; further: nearly all actives have a fitted effect of over 50% in size
Settings: HEK293 HTT promoter firefly luciferase reporter (activity 0% = vehicle and -100% = no light), 24 h; series mostly up to 57.5 µM; activity change, negative = inhibition: at the top concentration
How it was run: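 Firefly luciferase signal from promoter-reporter HEK293 cells was scaled between vehicle (0%) and zero RLU (-100%). Compounds were tested at final concentrations of up to 57.5 uM over 24 h at 37 degrees C. PTC124 at 50 uM final served as control inhibitor.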

Activity change, negative = inhibition, inactive:
COc1ccc(OC)c(C(O)CNC(=O)CN)c1 (configuration not stated) 13.3%
CC(S)C(=O)NCC(=O)O (configuration not stated)
CCCC(=O)O[C@]1(C(=O)COC(=O)CC)CC[C@H]2[C@@H]3CCC4=CC(=O)CC[C@]4(C)[C@H]3[C@@H](O)C[C@@]21C -0.4% [at 25.2 µM]
CSc1ncc(C(=O)N2CCN(c3ccc(F)cc3)CC2)c(C)n1 -7.04%
Cc1ccc(C)c(N2CCN(C(=O)c3cc(S(=O)(=O)N4CCCC4)cn3C)CC2)c1 -18.1%
CCc1nnc(SCc2nc(-c3ccc(OC)cc3)oc2C)c2cc3sccc3n12 -0.96%
Cc1ccccc1NC(=O)CN1C(=O)CCn2nc(-c3cccn3C)cc21 11.8%
Cc1sc2c(c1C)c(=O)n(-c1cccc(C(F)(F)F)c1)c(=O)n2Cc1ccccc1C#N -2.13%
CCCCn1c(-c2ccc(C)cc2)c(C)n2c3c(=O)n(C)c(=O)n(C)c3nc12 -26.9%
Cc1ncc(CO)c2c1Oc1nc(-c3ccccc3)nc(SCC(=O)Nc3cccc(C(F)(F)F)c3)c1C2 -22.1%
CCn1cc(C(=O)NCc2ccccc2Cl)c(=O)c2cc(S(=O)(=O)N3CCCCC3)ccc21 -9.11%
O=C(CSc1n[nH]c(-c2ccccc2Cl)n1)N1CCN(c2ccccc2F)CC1 -18.5%
O=C(Cc1ccccc1)Nc1cccc(-c2nc3cccnc3s2)c1 2.93%
CC1=C(C(=O)Nc2cccnc2)C(c2ccccc2)n2nc(SCc3ccccc3F)nc2N1 (configuration not stated) -27.5%
COc1ccc(-c2coc3c2c(C)cc2oc(=O)cc(C)c23)cc1 2.88%
O=C(NC1CCCC1)c1ccc2c(c1)N(Cc1ccccc1F)C(=O)c1ccccc1S2 -8.61%
CCOc1ccc(N(CC(=O)NCc2ccc(Cl)cc2)S(=O)(=O)c2c(C)noc2C)cc1 -4.69%
Cc1c(NC(=O)c2ccc(N3CCC(C)CC3)c([N+](=O)[O-])c2)cccc1-c1nc2ccccc2o1 -30.6%
Cc1ccc(C(=O)Nc2ccc(OCc3cc(=O)n4c5c(sc4n3)CCCC5)cc2)cc1 -25.3%
Cc1cccc(N2CCN(C(=O)c3oc(=O)c4ccccc4c3-c3ccccc3)CC2)c1C -9.19%
COCCCNC(=O)C1CCC(Cn2c(=O)c3sccc3n(Cc3ccc(F)cc3)c2=O)CC1 (configuration not stated) 4.7%
Cc1cc(NC(=O)Nc2csc3c2CCCC3)ccc1Br -6.1%
Cc1cc(C)cc(NC(=O)c2sc3nc(-c4cc5ccccc5oc4=O)[nH]c(=O)c3c2C)c1 6.55%
COC(=O)c1c(C)sc(-c2c(-c3cccc(Cl)c3)[nH]c3c2c(=O)[nH]c(=O)n3C)c1O -4.63%
O=C(NCc1ccccc1)c1csc(Nc2ccncn2)n1 -22%
Cc1cccc(N(C)C(=S)Oc2ccc3c(c2)CCC3)c1 -7.79%
COc1ccc(CCNC(=O)CCc2c(C)nc3c(c(C)nn3-c3ccccc3)c2C)c(OC)c1 0%
CCCNC(=O)CCC(=O)N1Cc2ccccc2Oc2ncccc21 6.78%
COc1ccc(C(=O)CN2C(=O)N(c3cc(C)ccc3C)S(=O)(=O)c3ccccc32)cc1 -16.6%
C=CC(=O)Nc1cc2c(Nc3ccc(F)c(Cl)c3)ncnc2cc1OCCCN1CCOCC1 -10.9%
CCOC(=O)c1c(C)oc2nc(C)nc(NC(C)c3ccccc3)c12 (configuration not stated) -16.6%
Cc1cccc(OCC(=O)Nc2ccc3c(c2)nc(CCNC(=O)c2ccco2)n3C)c1 -3.67%
Cc1nc2c3ccccc3nc(NNC(=O)CCC(=O)N3CCN(c4ccccc4)CC3)n2n1 -13.1%
CCOc1ccc(NC(=O)CSc2nccn2Cc2ccco2)cc1 72.6%
COc1ccc(-c2nc3ccccc3s2)cc1NC(=O)COc1ccc(C)cc1 72.4%
COc1ccc(OCC(=O)OCc2cc(=O)n3cc(C)sc3n2)cc1 -21.3%
COc1ccc(NC(=O)c2cc3nc(-c4ccc(C)c(C)c4)cc(C(F)(F)F)n3n2)cc1 -4.3%
CCc1ccccc1NC(=O)c1ccc2c(O)c(S(=O)(=O)c3ccccc3)c(=O)[nH]c2c1 -15.4%
CC(C)(C)NCC(O)COc1cccc2c1CCC(=O)N2 (configuration not stated) 9.22%
CCOC(=O)C1CCN(C(=O)CCS(=O)(=O)c2cc3c(cc2Cl)NC(=O)CO3)CC1 -7.63%
Cc1ccc(N(CC(=O)NCc2ccc(Cl)cc2)S(=O)(=O)N(C)C)cc1 -20.4%
COc1ccc(-c2cc(OC(=O)c3ccc(Cl)cc3)c3c(C)oc(C)c3c(=O)c2)cc1 -28.9%
Cc1ccc(C(=O)Nc2cccc(-c3nc4cccnc4s3)c2C)cc1 -24.9%
Cc1cccc(CN2C(=O)c3ccccc3S(=O)(=O)c3ccc(C(=O)NCCC4=CCCCC4)cc32)c1 -9.75%
CCCN1CCN(CCNC(=O)Nc2ccc(OC)cc2OC)CC1 -1.21%
O=C(CC1C(=O)N(c2ccccc2)C(=O)N1CCC1=CCCCC1)Nc1ccc(F)cc1 (configuration not stated) -40.7%
Cc1ccccc1NC(=O)CSc1nc(-c2ccccc2C)nc2cc(=O)[nH]n12 -10.1%
COCCNC(=O)Cn1nc(N2CCN(c3ccccc3OC)CC2)ccc1=O 9.6%
CCOc1ccc(NC(=O)N2CCN(S(=O)(=O)c3ccc4c(ccn4C)c3)CC2)cc1 -17.1%
CCc1ccc(C(=O)c2cn(CC(=O)Nc3ccc(F)cc3)c3ccc(OC)cc3c2=O)cc1 -8.63%
CC(=O)N1CCN(c2csc3ccc(F)cc3c2=O)CC1 3.94%
O=C1CN(C(=O)Cc2ccc(F)cc2)C(c2ccccc2)c2cc(Cl)ccc2N1 (configuration not stated) -28%
COc1ccc(NC(=O)Cn2c(=O)n(C(C)C)c(=O)c3oc4ccccc4c32)cc1Cl -2.04%
COc1ccc(-c2cc(C(C)=O)c(C)n2CCC(=O)NCc2ccccc2OC)cc1 -29.6%
Cc1nn(-c2ccccc2)c(OC(=O)C(C)C)c1Sc1ccccc1 -6.96%
Brc1cccc(CNCCSc2nnnn2-c2ccccc2)c1 -19.1%
CCc1ccccc1N(C)C(=O)Cc1c(C(=O)O)c(C)cn1C -8.65%
Cc1cc(C)c(NC(=O)C(C)n2nc(-c3ccc(C)c(C)c3)ccc2=O)c(C)c1 (configuration not stated) -5.13%
Cc1cc(C)cc(OCC(=O)NCCc2nc3ccccc3[nH]2)c1 -19.5%
COC(=O)c1cccc(-n2c(CCC(=O)O)ccc2-c2ccc(OC)cc2)c1 -17.9%
Cc1ccc(Cl)cc1NC(=O)C(C)n1nnc2sc(-c3ccccc3)cc2c1=O (configuration not stated) -2.74%
CCOC(=O)c1c(C)oc2ncnc(N3CCN(c4ccccc4OC)CC3)c12 -24.2%
